Results reported in the supplement of paper PMC12217912.
This is one part of the list. Sequences were assembled here from the parent chain. Values near 0.05 are background.

B1: TEV protease; numbered along this chain (parent)
chain: MGESLFKGPRDYNPISSSICHLTNESDGHTTSLYGIGFGPFIITNKHLFRRNNGTLVVQSLHGVFKVKDTTTLQQHLVDGRDMIIIRMPKDFPPFPQKLKFREPQREERICLVTTNFQTKSMSSMVSDTSCTFPSGDGIFWKHWIQTKDGQCGSPLVSTRDGFIVGIHSASNFTNTNNYFTSVPKNFMELLTNQEAQQWVSGWRLNADSVLWGGHKVFMVKPEEPFQPVKEATQL

Variants of: B1
Test: raw area under fraction-flipped curve 0-4 h after induction (AUC4h, not background-subtracted), DNA-recorder readout of cleavage of the substrate (dimensionless); higher = more cleavage of the substrate by the protease variant
Settings: temperature: 34 °C; time window: 0-4 h after rhamnose induction
Description: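 In vivo DNA recorder in E. coli TOP10(DE3) ΔrhaA at 34 °C. Each TEVp single-site mutant (parent TEVp 0) is paired with a single-site variant of the 7-mer TEVs (canonical ENLYFQ|S). The substrate sits between flexible linkers in a Bxb1-sfGFP-TEVs-SsrA fusion, so cleavage stabilises Bxb1 and speeds flipping of a recombination array, read by NGS. The value is the raw area under the fraction-flipped curve over 0-4 h after rhamnose induction (AUC4h), with ≥20 reads per time point. It is not background-subtracted; inactive controls average about 0.047.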
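Also: Bxb1 expression induced with 0.2% (w/v) L-rhamnose at OD600 near 0.5, cultures sampled hourly, flipped fraction per protease–substrate barcode pair counted by paired-end Illumina sequencing.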

| Variant | area with substrate ENLYFQA | area with substrate ENLYFQC | area with substrate ENLYFQF | area with substrate ENLYFQG | area with substrate ENLYFQH | area with substrate ENLYFQI | area with substrate ENLYFQK | area with substrate ENLYFQM | area with substrate ENLYFQN | area with substrate ENLYFQQ | area with substrate ENLYFQR | area with substrate ENLYFQS | area with substrate ENLYFQT | area with substrate ENLYFQV | area with substrate ENLYFQW | area with substrate ENLYFQD | area with substrate ENLYFQL | area with substrate ENLYFQP | area with substrate ENLYFQY | area with substrate ENLYFQE |
| --- | --- | --- | --- | --- | --- | --- | --- | --- | --- | --- | --- | --- | --- | --- | --- | --- | --- | --- | --- | --- |
| MGESLFKGPMDYNPISSSICHLTNESDGHTTSLYGIGFGPFIITNKHLFRRNNGTLVVQSLHGVFKVKDTTTLQQHLVDGRDMIIIRMPKDFPPFPQKLKFREPQREERICLVTTNFQTKSMSSMVSDTSCTFPSGDGIFWKHWIQTKDGQCGSPLVSTRDGFIVGIHSASNFTNTNNYFTSVPKNFMELLTNQEAQQWVSGWRLNADSVLWGGHKVFMVKPEEPFQPVKEATQL [R10M] | 0.125 | 0.124 | 0.0745 | 0.0805 | 0.0789 | 0.0524 | 0.052 | 0.0884 | 0.0924 | 0.0639 | 0.0745 | 0.106 | 0.0672 | 0.0338 | 0.0564 |  |  |  |  |  |
| MGESLFKGPRDYNAISSSICHLTNESDGHTTSLYGIGFGPFIITNKHLFRRNNGTLVVQSLHGVFKVKDTTTLQQHLVDGRDMIIIRMPKDFPPFPQKLKFREPQREERICLVTTNFQTKSMSSMVSDTSCTFPSGDGIFWKHWIQTKDGQCGSPLVSTRDGFIVGIHSASNFTNTNNYFTSVPKNFMELLTNQEAQQWVSGWRLNADSVLWGGHKVFMVKPEEPFQPVKEATQL [P14A] | 0.0973 | 0.129 |  |  |  | 0.0601 | 0.06 | 0.0861 | 0.0784 | 0.0797 | 0.0685 | 0.114 | 0.0597 | 0.0511 |  | 0.0836 | 0.0913 | 0.0553 | 0.0905 |  |
| MGESLFKGPRDYNMISSSICHLTNESDGHTTSLYGIGFGPFIITNKHLFRRNNGTLVVQSLHGVFKVKDTTTLQQHLVDGRDMIIIRMPKDFPPFPQKLKFREPQREERICLVTTNFQTKSMSSMVSDTSCTFPSGDGIFWKHWIQTKDGQCGSPLVSTRDGFIVGIHSASNFTNTNNYFTSVPKNFMELLTNQEAQQWVSGWRLNADSVLWGGHKVFMVKPEEPFQPVKEATQL [P14M] | 0.0978 | 0.112 | 0.0718 | 0.11 | 0.0805 | 0.0528 | 0.0583 | 0.0821 | 0.0349 |  | 0.0548 | 0.0966 | 0.0702 |  |  | 0.0997 | 0.0612 | 0.0549 | 0.0844 |  |
| MGESLFKGPRVYNPISSSICHLTNESDGHTTSLYGIGFGPFIITNKHLFRRNNGTLVVQSLHGVFKVKDTTTLQQHLVDGRDMIIIRMPKDFPPFPQKLKFREPQREERICLVTTNFQTKSMSSMVSDTSCTFPSGDGIFWKHWIQTKDGQCGSPLVSTRDGFIVGIHSASNFTNTNNYFTSVPKNFMELLTNQEAQQWVSGWRLNADSVLWGGHKVFMVKPEEPFQPVKEATQL [D11V] | 0.0877 | 0.107 | 0.0674 | 0.0621 | 0.119 | 0.0577 | 0.0706 | 0.0824 | 0.0695 |  | 0.0681 | 0.0875 | 0.0633 | 0.0588 | 0.0498 | 0.0623 | 0.0603 | 0.0574 |  | 0.0671 |
| MGECLFKGPRDYNPISSSICHLTNESDGHTTSLYGIGFGPFIITNKHLFRRNNGTLVVQSLHGVFKVKDTTTLQQHLVDGRDMIIIRMPKDFPPFPQKLKFREPQREERICLVTTNFQTKSMSSMVSDTSCTFPSGDGIFWKHWIQTKDGQCGSPLVSTRDGFIVGIHSASNFTNTNNYFTSVPKNFMELLTNQEAQQWVSGWRLNADSVLWGGHKVFMVKPEEPFQPVKEATQL [S4C] | 0.079 | 0.0839 |  | 0.0821 | 0.0619 | 0.058 | 0.0781 | 0.0731 | 0.0743 |  | 0.063 | 0.0834 | 0.0695 |  | 0.0771 | 0.0643 | 0.0607 | 0.0467 | 0.0536 |  |
| MGESLFKGPRDLNPISSSICHLTNESDGHTTSLYGIGFGPFIITNKHLFRRNNGTLVVQSLHGVFKVKDTTTLQQHLVDGRDMIIIRMPKDFPPFPQKLKFREPQREERICLVTTNFQTKSMSSMVSDTSCTFPSGDGIFWKHWIQTKDGQCGSPLVSTRDGFIVGIHSASNFTNTNNYFTSVPKNFMELLTNQEAQQWVSGWRLNADSVLWGGHKVFMVKPEEPFQPVKEATQL [Y12L] | 0.0954 | 0.129 | 0.0903 | 0.103 | 0.114 | 0.0578 | 0.0771 | 0.0914 | 0.0763 | 0.0725 | 0.0569 | 0.108 | 0.0649 | 0.0357 | 0.062 | 0.0772 | 0.0723 | 0.0596 |  |  |
| MGESLFKGPRDYLPISSSICHLTNESDGHTTSLYGIGFGPFIITNKHLFRRNNGTLVVQSLHGVFKVKDTTTLQQHLVDGRDMIIIRMPKDFPPFPQKLKFREPQREERICLVTTNFQTKSMSSMVSDTSCTFPSGDGIFWKHWIQTKDGQCGSPLVSTRDGFIVGIHSASNFTNTNNYFTSVPKNFMELLTNQEAQQWVSGWRLNADSVLWGGHKVFMVKPEEPFQPVKEATQL [N13L] | 0.113 | 0.13 | 0.0925 | 0.109 | 0.0892 | 0.0461 | 0.0697 | 0.106 | 0.0807 |  | 0.0588 | 0.115 | 0.0704 | 0.0584 | 0.0611 |  | 0.0576 | 0.0703 | 0.09 |  |
| MGESLFKGPRDYPPISSSICHLTNESDGHTTSLYGIGFGPFIITNKHLFRRNNGTLVVQSLHGVFKVKDTTTLQQHLVDGRDMIIIRMPKDFPPFPQKLKFREPQREERICLVTTNFQTKSMSSMVSDTSCTFPSGDGIFWKHWIQTKDGQCGSPLVSTRDGFIVGIHSASNFTNTNNYFTSVPKNFMELLTNQEAQQWVSGWRLNADSVLWGGHKVFMVKPEEPFQPVKEATQL [N13P] | 0.0885 |  | 0.0794 | 0.113 | 0.0785 | 0.0673 | 0.0585 | 0.0916 | 0.0737 |  | 0.0587 | 0.0971 | 0.0501 | 0.0656 | 0.0699 |  | 0.0622 |  | 0.0712 | 0.0656 |
